From PubChem BioAssay AID624417 (National Center for Advancing Translational Sciences (NCATS), 2012)
Where “and” joins values, the source holds several entries; their conditions need not be identical. Equal values may be shown once. About 6,400 (1.6%) of roughly 410,000 compounds were called active. Inconclusive results, whose numbers are uncertain, are shown with a selection of clear calls. The call rests on the fitted dose curve; in most records, active means well fitted inhibition curve with a large enough effect; inconclusive means small, poorly fitted or top-dose-only effect; inactive means no such curve, though single readings can be large or run the other way. Potencies of inconclusive entries are doubtful fits and often do not repeat.

These compounds were tested against Glucagon-like peptide 1 receptor (Homo sapiens) (UniProt P43220) (assay: qHTS of GLP-1 Receptor Inverse Agonists (Inhibition Mode)). Details: HEK293 GLP-1R CRE-luciferase, luminescence, 24 h, GLP-1R form is constitutively active; activity change, negative = inhibition: at 38.3 µM (top of the series) unless noted.
Chain of UniProt P43220 (P43220 whole entry, looked up): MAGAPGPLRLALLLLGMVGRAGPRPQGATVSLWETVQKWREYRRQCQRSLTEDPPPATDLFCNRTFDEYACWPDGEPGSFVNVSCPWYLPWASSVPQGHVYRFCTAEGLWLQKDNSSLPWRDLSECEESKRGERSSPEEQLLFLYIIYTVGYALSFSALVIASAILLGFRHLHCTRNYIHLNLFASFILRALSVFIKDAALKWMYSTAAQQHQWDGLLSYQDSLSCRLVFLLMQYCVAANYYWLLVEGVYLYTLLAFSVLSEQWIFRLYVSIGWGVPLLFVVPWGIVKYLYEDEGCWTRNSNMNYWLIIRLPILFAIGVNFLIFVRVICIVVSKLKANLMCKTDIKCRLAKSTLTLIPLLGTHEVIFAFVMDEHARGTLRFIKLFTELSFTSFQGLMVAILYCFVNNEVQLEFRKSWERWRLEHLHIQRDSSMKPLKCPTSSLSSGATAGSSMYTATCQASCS
Method in brief: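 Stable HEK293 clone (constitutively active GLP-1R + cAMP-response luciferase); 200 cells/uL plated, 12 h pre-culture, compound 24 hr, 37 deg C/5% CO2; detection reagent 12 min RT; luminescence.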
Further: nearly all actives have a fitted effect of over 55% in size.
On the % scale 0 is the no-effect control and ±100 the full control effect; potency means the concentration at half of the fitted maximal effect; tags describe the fitted curve by direction and shape.

**Q.** Which Potency does the source give for `CC[n+]1ccc(/C=C/c2ccc(N(C)C)cc2)c2ccccc21` here?
**A.** inconclusive: 7.94 µM [inhibitor, partial curve, poor fit]

**Q.** `COc1ccc(-c2noc(N3CCC(C(=O)N4CCN(c5ccccc5OC)CC4)CC3)n2)cc1` was tested. Which Potency did it give?
**A.** inconclusive: 10 µM [inhibitor, partial curve, poor fit]

**Q.** Which Potency does the source give for `Cc1cccc2c1-c1sc(C(=O)N3CCN(c4ccccc4)CC3)cc1CO2` here?
**A.** inactive

**Q.** For `COc1ccc(NC(=S)N2CCN(S(=O)(=O)c3ccc(F)cc3)CC2)cc1OC`, which Potency is on record?
**A.** inactive

**Q.** `CCc1ccc2c(c1)C(C)=CC(C)(C)N2` was tested. Which Potency did it give?
**A.** inactive

**Q.** For `Cn1c2c(c(=O)n(C)c1=O)C1c3cc(Cl)ccc3OCC1CO2` (centres undefined), which Potency is on record?
**A.** inconclusive: 12.6 µM [inhibitor, single point]

**Q.** For `COc1ccc2[nH]c3c(N4CCN(Cc5ccc6c(c5)OCO6)CC4)ncnc3c2c1`, which Potency is on record?
**A.** inconclusive: 22.4 µM [inhibitor, single point]

**Q.** Which Potency does the source give for `O=C1OC(c2ccccc2)(c2cc(Br)ccc2O)c2ccccc21` (centres undefined) here?
**A.** inconclusive: 7.94 µM [inhibitor, partial curve, poor fit]

**Q.** With `CCCC(=O)c1cc(F)c(N2CCN(C(=O)OCC)CC2)cc1C` as the compound, how does the Potency read?
**A.** inconclusive: 20 µM [inhibitor, single point]

**Q.** Which Potency does the source give for `O=[N+]([O-])c1ccccc1S(=O)(=O)N1CCN(Cc2ccccc2)CC1` here?
**A.** inconclusive: 28.2 µM [inhibitor, single point]

**Q.** How did the Potency turn out when `CCOc1cc(CNC2CCCC2)c(Cl)cc1OCC(=O)Nc1ccccc1` was run?
**A.** inconclusive: 10 µM [inhibitor, partial curve, poor fit]

**Q.** Which Potency does the source give for `COc1ccc(S(=O)(=O)Nc2ccccc2OC)cc1NC(=O)CC1CC2CCC1C2` (centres undefined) here?
**A.** inconclusive: 14.1 µM [inhibitor, single point]

**Q.** Which Potency does the source give for `O=C(COc1cccc(NC(=O)c2cccs2)c1)c1ccc(F)cc1` here?
**A.** inconclusive: 12.6 µM [inhibitor, partial curve, poor fit]

**Q.** For `CSC1=NC2(CC(c3ccccc3)Oc3cc(O)ccc32)CC(C)(C)N1` (centres undefined), which Potency is on record?
**A.** inconclusive: 10 µM [inhibitor, partial curve, poor fit]

**Q.** Which Potency does the source give for `COc1ccc(N2CCN(CCNC(=O)Nc3ccc(C)cc3Cl)CC2)cc1` here?
**A.** inconclusive: 1.78 µM [inhibitor, full curve]

**Q.** With `COc1ccc(Nc2nc(-c3cccc(Cl)c3)c3c(n2)-c2ccccc2OC3)cc1` as the compound, how does the Potency read?
**A.** inconclusive: 3.55 µM [inhibitor, partial curve]

**Q.** With `Cc1ccc(NS(=O)(=O)c2ccc(-c3cnc(C4CC4)o3)cc2)c(C)c1` as the compound, how does the Potency read?
**A.** inconclusive: 0.794 µM [inhibitor, full curve, poor fit]

**Q.** `CCOc1ccccc1CNC(=O)Cc1ccc(NC(=O)N2CCCCc3ccccc32)cc1` was tested. Which Potency did it give?
**A.** inconclusive: 12.6 µM [inhibitor, single point]

**Q.** With `CCOC(=O)CSc1nnc(NC(=O)NC(C)C)s1` as the compound, how does the Potency read?
**A.** inactive

**Q.** With `C[n+]1cn(/N=C/c2ccccc2)c2ccccc21` as the compound, how does the Potency read?
**A.** inactive

**Q.** How did the Potency turn out when `Cc1cc(OCC(=O)Nc2ccc(S(=O)(=O)N3CCN(C)CC3)cc2)ccc1Cl` was run?
**A.** inconclusive: 28.2 µM [inhibitor, single point]

**Q.** `COC(=O)c1sc(C(F)(F)F)c(-c2ccccc2)c1S(=O)(=O)N1CCCC1` was tested. Which Potency did it give?
**A.** inconclusive: 11.2 µM [inhibitor, single point]

**Q.** `CN(C)S(=O)(=O)c1cccc(-c2csc(=Nc3ccccc3)n2CCCN2CCOCC2)c1` was tested. Which Potency did it give?
**A.** inconclusive: 28.2 µM [inhibitor, single point]

**Q.** `Cc1ccc(N2CCN(S(=O)(=O)c3ccc4oc(=O)ccc4c3)CC2)c(C)c1` was tested. Which Potency did it give?
**A.** inconclusive: 28.2 µM [inhibitor, partial curve, poor fit]

**Q.** How did the Potency turn out when `COc1ccc(NC(=O)C[C@H]2C(=O)N(c3ccc(Br)cc3)C[C@@H]2CSC)cc1` was run?
**A.** inconclusive: 6.31 µM [inhibitor, partial curve, poor fit]

**Q.** `Fc1ccccc1N1CCN(Cc2nc(-c3ccc(Cl)cc3Cl)no2)CC1` was tested. Which Potency did it give?
**A.** inconclusive: 20 µM [inhibitor, single point]

**Q.** `Cc1ccc(-n2ncc3c(SCc4ccccn4)ncnc32)c(C)c1` was tested. Which Potency did it give?
**A.** inconclusive: 1.78 µM [inhibitor, partial curve, poor fit]

**Q.** How did the Potency turn out when `O=C1OCCN1C(=O)[C@H]1[C@H](c2ccc([N+](=O)[O-])cc2)C(c2ccc(F)cc2)=NN1c1ccc(Br)cc1` was run?
**A.** active: 10 µM

**Q.** For `CCc1cc(C(=O)c2ccccc2)c(N)s1`, which Potency is on record?
**A.** inconclusive: 11.2 µM [inhibitor, single point]

**Q.** For `O=C(NCCN1CCN(c2ccccc2)CC1)Nc1cccc(Br)c1`, which Potency is on record?
**A.** inconclusive: 10 µM [inhibitor, partial curve, poor fit] and inconclusive: 28.2 µM [inhibitor, single point]

**Q.** With `CCOC(=O)CC(=O)CSc1nc(-c2ccccc2)cc(-c2ccccc2)c1C#N` as the compound, how does the Potency read?
**A.** inconclusive: 10 µM [inhibitor, partial curve, poor fit]

**Q.** `CCC(CC)COC(=O)C1=C(C)NC(=O)NC1c1cccc([N+](=O)[O-])c1` (centres undefined) was tested. Which Potency did it give?
**A.** inconclusive: 28.2 µM [inhibitor, single point]

**Q.** With `Fc1ccc(-c2cn(-c3ccccc3)c3[n+]2CCS3)cc1` as the compound, how does the Potency read?
**A.** inconclusive: 5.01 µM [inhibitor, full curve]

**Q.** How did the Potency turn out when `O=C(Nc1nc(-c2ccccc2)cs1)c1ccc2c(=O)n3c(nc2c1)CCCCC3` was run?
**A.** inconclusive: 7.94 µM [inhibitor, partial curve]

**Q.** How did the Potency turn out when `C[C@@H](c1ccccc1)N1C[C@H]2CCCN2c2cc(Br)ccc2S1(=O)=O` was run?
**A.** inconclusive: 6.31 µM [inhibitor, partial curve, poor fit]

**Q.** For `COC(=O)c1cc2oc3ccccc3c2n1Cc1nc(-c2ccccc2Cl)oc1C`, which Potency is on record?
**A.** inactive

**Q.** For `O=C(/C=C/c1ccc(Cl)cc1Cl)NCc1ccco1`, which Potency is on record?
**A.** inconclusive: 28.2 µM [inhibitor, single point]

**Q.** With `COc1cccc(N2CCN(c3c4c(nc5nncn35)CCC4)CC2)c1` as the compound, how does the Potency read?
**A.** inactive

**Q.** With `CCOC(=O)[C@]12CCCC=C1N(CCC1=CCCCC1)C(=O)[C@H](CC(=O)NCCC(C)C)C2` as the compound, how does the Potency read?
**A.** inconclusive: 11.2 µM [inhibitor, partial curve, poor fit]

**Q.** Which Potency does the source give for `COc1cc(C(=O)N/N=C/c2ccccn2)cc(OC)c1OC` here?
**A.** inconclusive: 1.78 µM [inhibitor, full curve, poor fit]

**Q.** Which Potency does the source give for `COc1ccc(NC(=O)N(C)[C@H]2C[C@H]3c4[nH]c5ccc(-c6cccc(C)c6)cc5c4CCN3C[C@H]2[C@H](C)O)cc1` here?
**A.** inconclusive: 12.6 µM [inhibitor, partial curve, poor fit]

**Q.** Which Potency does the source give for `CC(C)(C)C(=O)Nc1ccc(C(=O)N/N=C/c2ccccc2OC(=O)c2ccc(Cl)cc2Cl)cc1` here?
**A.** inconclusive: 10 µM [inhibitor, partial curve, poor fit]

**Q.** For `CC(C)(C)n1cnc2cc(NCc3cccs3)ccc21`, which Potency is on record?
**A.** inactive

**Q.** For `COc1cccc(-c2c(C(=O)N/N=C/c3ccc(C)s3)nnn2-c2nonc2N)c1`, which Potency is on record?
**A.** inconclusive: 10 µM [inhibitor, partial curve]

**Q.** `COc1cccc(-c2ccc(NC(=O)C3CCCN(Cc4cnn(C(C)C)c4)C3)cc2)c1` (centres undefined) was tested. Which Potency did it give?
**A.** inconclusive: 6.31 µM [inhibitor, partial curve, poor fit]

**Q.** For `COc1ccc(N(C(=O)CCl)C(C(=O)NCCc2ccccc2)c2cccs2)cc1Cl` (centres undefined), which Potency is on record?
**A.** inconclusive: 11.2 µM [inhibitor, partial curve, poor fit]

**Q.** `COc1cc(/C=C2/C(=O)NN(c3cccc(F)c3)C2=O)ccc1OC(=O)c1ccco1` was tested. Which Potency did it give?
**A.** inconclusive: 2.24 µM [inhibitor, partial curve, poor fit]

**Q.** `COc1cc(-c2nc(-c3ccc4c(c3)-c3ccccc3S4(=O)=O)c(-c3ccccc3)[nH]2)cc(OC)c1O` was tested. Which Potency did it give?
**A.** inconclusive: 11.2 µM [inhibitor, partial curve, poor fit]

**Q.** How did the Potency turn out when `O=C(c1ccc(OC2CCN(CCc3ccccc3)CC2)cc1)N1CCCCC1CCCO` (centres undefined) was run?
**A.** active: 11.2 µM

**Q.** How did the Potency turn out when `COc1ccccc1NS(=O)(=O)c1cc(-c2cc(C)no2)ccc1OC` was run?
**A.** inconclusive: 28.2 µM [inhibitor, single point]

**Q.** How did the Potency turn out when `COc1cccc(CNc2nc3cc(-c4ccccc4CO)sc3c(=O)n2C)c1` was run?
**A.** inconclusive: 22.4 µM [inhibitor, partial curve, poor fit]

**Q.** For `CCOc1ccc(C(OC(=O)c2ccco2)C(=O)NCc2ccc(C)cc2)cc1` (centres undefined), which Potency is on record?
**A.** inconclusive: 8.91 µM [inhibitor, partial curve, poor fit]

**Q.** For `O=C(N/N=C/c1ccc(N2CCOCC2)cc1)c1ccccc1OCCOc1ccccc1`, which Potency is on record?
**A.** inconclusive: 17.8 µM [inhibitor, single point]

**Q.** How did the Potency turn out when `CC(C)[C@@H](C(=O)N1CCN(Cc2ccc3c(c2)OCO3)CC1)n1nnc2ccccc2c1=O` was run?
**A.** inconclusive: 10 µM [inhibitor, partial curve, poor fit]

**Q.** Which Potency does the source give for `COc1cc(NC(=O)C2CCCCC2)c2ncccc2c1` here?
**A.** inconclusive: 28.2 µM [inhibitor, single point]

**Q.** How did the activity change, negative = inhibition turn out when `N/C(=N\OC(=O)CCC1CCCC1)c1ccccc1` was run?
**A.** inactive: 3.7% [at 7.66 µM]

**Q.** Which Potency does the source give for `CN(C(=O)CN1C(=O)c2ccccc2S1(=O)=O)C1CCCCC1` here?
**A.** inconclusive: 5.62 µM [inhibitor, partial curve]

**Q.** With `COc1ccc(NC(=S)N(CCc2c(C)[nH]c3ccccc23)Cc2ccco2)cc1` as the compound, how does the Potency read?
**A.** inconclusive: 10 µM [inhibitor, partial curve, poor fit]

**Q.** With `CNC[C@H](CC1CCCCC1)NC[C@H](Cc1ccccc1)NCCC12CC3CC(CC(C3)C1)C2` as the compound, how does the Potency read?
**A.** inconclusive: 20 µM [inhibitor, single point]
